The assay relates to NCI-H322M lung. Kind of assay: NCI tumour cell line growth inhibition, 48 h.

“And” between values parts separate entries of the source, which are not always exact repeats. Equal values may be shown once.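 Method: 48-hour compound exposure of cells in 96-well plates, five concentrations, linear interpolation of endpoints. GI50 marks 50% less growth. Definition used: TGI = concentration required for complete inhibition of growth.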

TGI and GI50 data for 90 compounds are collected here from PubChem BioAssay (NCI).

On to `CC(=O)O[C@H]1C[C@H]2[C@@H](OC(C)=O)/C=C3\C[C@](C)(C(=O)[C@H](O)C(=C1C)C2(C)C)[C@@H](O)C[C@@H]3OC(=O)[C@H](O)[C@H](c1ccccc1)N(C)C`, for which the TGI was over 100 µM. Turning to `O=c1[nH]c(=O)n(C2OC(CO)C(O)C2O)cc1NN=NCc1ccccc1` (centres undefined), the TGI was over 100 µM.

Turning to `Cc1nn(-c2ccccc2)c2nc(N3CCOCC3)nnc12`, the TGI was over 100 µM. The compound `[N-]=[N+]=NC12CC3C4CC5CC3C(C1)C(C5)C4C2` yielded a TGI of over 100 µM.

In the case of `C=C(CNCc1ccccc1)c1ccc(C(=O)Nc2ccccc2N)cc1`, the GI50 was 7.12 µM and the TGI stood at 56 µM.

`COC(=O)c1cc2c3c(ccc2[nH]1)N(C(=O)c1cc2cc(OC)c(OC)c(OC)c2[nH]1)CC3CCl` (centres undefined) registered a TGI of over 100 µM. In turn, `O=C(C=P(c1ccccc1)(c1ccccc1)c1ccccc1)c1ccc(-c2cccc([N+](=O)[O-])c2)s1` displayed a TGI of over 100 µM. Turning to `COCC1OC(Sc2ccccc2)C(O)C(OC)C1OC` (centres undefined), the TGI was over 100 µM. The compound `O=C1C(Cl)N(c2ccc(Cl)cc2)C1c1c[nH]c2ccccc12` (centres undefined) returned a TGI of 30.3 µM. Take `CC(C)N(C(=O)C12C3C4C5(C#N)C3C1(C#N)C5C42I)C(C)C` (centres undefined): the TGI is over 100 µM. `O=C(NC(Cc1c[nH]c2ccccc12)C(=O)Nc1ccc(Br)cc1)OCc1ccccc1` (centres undefined) displayed a TGI of 44.9 µM. `CC(CCC=O)CCOCc1ccccc1` (centres undefined): the TGI is over 100 µM.

Take `O=C(O)c1ccc(N=C(C(=Nc2ccc(C(=O)O)cc2)c2ccccc2)c2ccccc2)cc1`: the TGI was over 100 µM.

For the compound `O=C1/C(=C/c2ccc(Br)cc2)COc2ccc(O)c(O)c21`, the GI50 was 1.5 µM and the TGI was determined as 3.11 µM. `COc1ccc2c(c1)CCCC(Br)C2=O` (centres undefined) displayed a TGI of 31.6 µM.

As for `CCC(C)n1ncn(-c2ccc(N3CCN(c4ccc(OCC5COC(Cn6cncn6)(c6ccc(Cl)cc6Cl)O5)cc4)CC3)cc2)c1=O` (centres undefined), the GI50 was over 100 µM and the TGI was over 100 µM. `O=c1[nH]c2c(nc1NC13CC4CC(CC(C4)C1)C3)c(=O)oc1ccccc12` registered a TGI of over 100 µM. Take `CCCn1c2ccccc2c2ccc3c(c21)C(=O)C=CC3=O`: the TGI was over 10 µM. As to `COc1cc(C2CC(c3cccc(Br)c3)=NN2C(C)=O)cc(OC)c1OC` (centres undefined), the GI50 was 0.563 µM and the TGI is over 100 µM. In the case of `COc1cnc2c(c1)C(=O)c1c-2n(CCCNC(C)C)c(=O)c2cc(Cl)ccc12`, the GI50 is 1.06 µM and the TGI was 2.6 µM.

The compound `O=C1C2CC=CCC2C(=O)N1n1c(Cc2ccc(Cl)cc2)n[nH]c1=O` (centres undefined) registered a TGI of over 100 µM. In turn, `CC(C)(C)NC(NC(C)(C)C)=C(/C=C(/Cl)[N+](=O)[O-])[N+](=O)[O-]` gave a TGI of over 100 µM. For `CS(=O)(=O)O[C@H]1CN2C[C@@H](O)[C@@H](O)[C@H]2[C@H]1CO`, the TGI is over 100 µM.

Turning to `N=C1/C(=C/c2ccc(F)cc2)C(=O)N=C2SC=NN12`, the TGI is over 100 µM. Consider `COc1ccc(CN2C(=O)/C(=C\C(=O)c3ccc(OCCN4CCCCC4)cc3)c3ccccc32)cc1`, for which the GI50 is 13.3 µM and the TGI came out at 26.3 µM. For the compound `COc1cccc(/C=C/c2cc(OC)c(OC)c(OC)c2)c1`, the TGI was over 100 µM. Consider `Cc1cc([N+](=O)[O-])ccc1Nc1cccc(Cl)c1C`, for which the TGI was 37.1 µM.

Turning to `O=C(Nc1ccc(Cl)cc1F)c1ccccc1O`, the GI50 was 2.66 µM and the TGI is over 100 µM. For `COc1cccc2c1OC(c1ccc(Cl)cc1)C([N+](=O)[O-])=C2` (centres undefined), the TGI is 14 µM. For `O=C1NC(NNc2ccccc2)=N/C1=C\c1ccccc1O`, the TGI was over 100 µM. In turn, `Cn1c2c(c3ccccc31)C1CCCCCCC1C1C(=O)OC(=O)C21` (centres undefined) displayed a TGI of over 100 µM.

As for `CCN(CC)c1ccc2c(c1)OC(N)=C(C#N)C2c1cc(OC)c2c(c1)OCO2` (centres undefined), the GI50 is 0.546 µM and the TGI was over 69.9 µM. In the case of `CN=c1nc2sc3c(c2c(NC(=S)NC)s1)CCCC3`, the TGI is over 100 µM. Compound `OCCCCCCCCCCCOc1ccc(C2OCC3(CO2)COC(c2ccc(OCCCCCCCCCCCO)cc2)OC3)cc1` (centres undefined) had a TGI of over 50 µM. `c1nc(OCC2CCCCC2)c2[nH]cnc2n1` had a TGI of over 100 µM.

In the case of `Cc1cc(N)c(C)c2c1[nH]c1ccc(O)cc12`, the TGI was over 100 µM. On to `COC(=O)CCC1=CCC2(SC)C(=O)Nc3cccc1c32` (centres undefined), for which the TGI is over 100 µM. Regarding `C=C1CC[C@@H]2[C@](C)(COC(C)=O)[C@H](OC(C)=O)CC[C@@]2(C)[C@@H]1CC(Sc1ccccc1)C1=CCOC1=O` (some centres undefined), the GI50 is 2.93 µM and the TGI amounted to 10.4 µM. On to `CN(C)N=Nc1ccc(NC=O)cc1`, for which the TGI was over 100 µM.

In turn, `CCN(CC)CCC(=O)/C=C/c1ccccc1` returned a TGI of 54.3 µM. Take `CCn1c(-c2nonc2N)nc2c(C#CC(C)(C)O)nc(OC[C@H](N)c3ccccc3)cc21`: the GI50 is 5.1 µM and the TGI came out at 12.5 µM. In the case of `CCCCc1c(N(C)C)c(OC(C)=O)c(-c2cn(C)c3ccccc23)oc1=O`, the TGI is over 100 µM. In turn, `O=C(NCC(=O)N1CCCC1C(=O)OC(=O)C1CCCN1C(=O)CNC(=O)OCc1ccccc1)OCc1ccccc1` (centres undefined) registered a TGI of over 100 µM. For the compound `COc1ccccc1/C(=N\OCCC(=O)O)c1cccs1`, the TGI is over 100 µM. `CC(=O)Nc1ccc(C(=O)NN2C(=O)CSC2c2ccc([N+](=O)[O-])cc2)cc1` (centres undefined) registered a TGI of over 100 µM. Turning to `COc1ccc(/C=C(/C(=O)N2CCN(c3ccccc3)CC2)c2cc(OC)c(OC)c(OC)c2)cc1O`, the GI50 is 0.765 µM and the TGI was over 100 µM. In turn, `CCCCCCCCCC1(N=[N+]=[N-])C(=O)c2ccccc2N(C)C1=O` (centres undefined) yielded a TGI of over 100 µM. With `Cc1cc(I)cc(CN(C)CCCN2CCCCCCC2)c1O`, the GI50 was 16.3 µM and the TGI was 31.2 µM. Compound `Cc1cc(C)n2nc3nc(N)c(C#N)c(-c4ccccc4)c3c2n1` came in with a TGI of over 100 µM.

Regarding `O=c1c2sc(=S)n(-c3ccc(F)cc3)c2ncn1Cc1ccc(F)cc1F`, the GI50 is over 100 µM and the TGI was over 100 µM. Compound `O=S1(=O)C[C@H](O)[C@H](O)CS1` gave a TGI of over 100 µM.

In the case of `N#Cc1nc(Nc2cccc3ccccc23)sc1N`, the TGI was over 100 µM. The compound `CCOc1ccccc1C=C1c2ccccc2C(=O)c2ccccc21` yielded a TGI of over 100 µM. `O/N=C/C1C(OCc2ccccc2)C(OCc2ccccc2)C(OCc2ccccc2)CN1Cc1ccccc1` (centres undefined): the GI50 is 11.5 µM and 47.2 µM; the TGI was 89.5 µM and > 100 µM. For `COC(=O)c1cc2c(s1)C(=O)c1ccccc1-2`, the TGI was over 100 µM. Same read-out and setting: the result for `Cc1cc(CC(O)c2ccc(Cl)c(Cl)c2)nc(=O)[nH]1` (centres undefined) reads over 100 µM. Same read-out and setting: the result for `Nc1ccc(Oc2ccc(C34CC5CC6C3CC3CC4C(C5)C6(c4ccc(Oc5ccc(N)cc5)cc4)C3)cc2)cc1` reads over 85.8 µM; that for `CCCCC(C(=O)C(=O)NC1C2CC3CC(C2)CC1C3)C(=O)C(C)C` (centres undefined), over 100 µM. For the compound `C=CCCCCC/C=C\[C@H](O)C#CC#C/C=C/CO`, the GI50 is 43.2 µM and the TGI was over 100 µM.

With `C1C2CC3CC1CC(Nc1nc(NC45CC6CC(CC(C6)C4)C5)nc(NC45CC6CC(CC(C6)C4)C5)n1)(C2)C3`, the TGI was over 69 µM. As to `COc1cc(N(CCC#N)CCC#N)ccc1/C(N=Nc1ccc([N+](=O)[O-])cc1)=N/NC(=O)c1cc(Br)ccc1O`, the GI50 was 40.5 µg/mL and the TGI was over 150 µg/mL. As to `COC(=O)c1ccc(C(=O)NC(Cc2ccc(Oc3cc(CC(NC(=O)c4ccccc4C(=O)OC)C(=O)OC)ccc3OC)cc2)C(=O)OC)cc1` (centres undefined), the TGI was over 100 µM.

`CCOc1cc2c(OCc3ccccc3)cc3c4cc(OC)c(OC)cc4c[n+](C)c3c2cc1OC`: the TGI was determined as 13.5 µM. For the compound `CCN(CC)CCCC(CNc1ccnc2cc(Cl)ccc12)c1ccc(Cl)cc1` (centres undefined), the GI50 is 1.51 µM and 1.88 µM; the TGI is 4.13 µM and 4.63 µM. Take `CC(C)(Br)C(Br)CCC1(C2CO2)CO1` (centres undefined): the TGI is over 5 µM. Take `O=C(O)CC(CC(=O)O)C(=O)O`: the TGI is over 100 µM. Compound `Oc1c(C2=NNC(c3ccc(Cl)cc3Cl)C2)ccc2ccccc12` (centres undefined) came in with a TGI of over 100 µM. Compound `CC(C)C(=O)[C@@]1(C)SC[C@H]2CCN=C21` returned a TGI of over 100 µM. As for `COc1cc(C(Cc2ccccc2)NC(C)=O)oc(=O)c1` (centres undefined), the TGI is over 100 µM.

With `CC(C)c1ccc2c(c1)CC[C@@H]1[C@@](C)(C(=O)O)CCC[C@]21C`, the GI50 is 10.4 µM and the TGI was determined as 23.1 µM. `C=COCCCOc1ccccc1` registered a TGI of over 100 µM. For `Clc1nc2ccccc2nc1CI`, the GI50 is 19.2 µM and the TGI worked out at 37.7 µM. For the compound `CCCCCCNC(=O)c1cc(NCc2cc(O)ccc2O)ccc1O`, the GI50 is 25.6 µM and the TGI was over 100 µM. Compound `CCCN=C(N)NC#N` registered a TGI of over 100 µM. Take `O=C1NC(=O)C(c2cnc3ccccn23)=C1c1cn2c3c(cc(F)cc13)CN(C(=O)N1CCCCC1)CC2`: the GI50 is 16.6 µM and the TGI is 36 µM. Compound `Nc1ncnc2c1ccn2C/C=C\CO` displayed a TGI of over 100 µM. Turning to `CCCCC1=NNC(=O)C1`, the TGI was over 100 µM. Compound `OC1[C@@H]2[C@@H](O)[C@H](O)[C@@H](O)N2C[C@@H]1O` (some centres undefined) registered a TGI of over 100 µM. The same measure, in the same setting: in the case of `Cc1ccc(Cc2c(=O)[nH]nc3ccccc23)cc1` it was over 100 µM; in that of `C=C1C(=O)OC2CCN3CC=C(COC(=O)C(C)(O)C4(CO4)C1C)C23` (centres undefined), over 100 µM; in that of `COc1ccc(C2C(Cl)C(=O)N2n2cnc3ccccc3c2=O)cc1` (centres undefined), over 100 µM. `CC1=C(C(=O)Nc2ccccc2)C(c2ccccc2)C(C(=O)Nc2ccccc2)=C(C)N1`: the TGI was over 100 µM. `CCN(CC)CC1CCCCCCCCCCC1=O` (centres undefined) came in with a TGI of over 100 µM. On to `Cc1cc(C)nc(NC(=O)c2ccc(Br)s2)c1`, for which the TGI is over 100 µM. `CC(C)=CCNc1ncnc2c1ncn2C1OC(CO)C(O)C1O` (centres undefined): the GI50 was 3.27 µM and the TGI was over 1000 µM. As to `Cn1cc(CO)c2c1C(=O)C=C(N1CC1)C2=O`, the GI50 was 0.0161 µM and the TGI is 0.0533 µM. In turn, `Cc1ccc(S(=O)(=O)N(CC(=O)O)c2ccccc2)cc1` had a TGI of over 100 µM. For `O=C(OC(CNc1cc(=O)n(Cc2ccccc2)c(=O)n1Cc1ccccc1)CN1CCCC1)c1ccccc1` (centres undefined), the GI50 was over 100 µM and the TGI was over 100 µM. As to `CCCCS(=O)CCC(N)P(=O)(O)O` (centres undefined), the TGI was over 100 µM. As to `S=C1NC2(CCCCCC2)NN1c1ccccc1`, the TGI is over 100 µM.
